# Laboratory results: the supplement of paper PMC8728848
# The list shows a part of the results.
# B1: LecB PA7 (Pseudomonas aeruginosa) (protein)
# chain: MATQGVFTLPANTRFGVTAFANSSATQTVKVLVNNETAATFTGQSTNNAVIGSQVLNSGGGGKVQIQVSVNGRSSDLVSAQVILANELNVALVGSEDSTDNDYNDAVVVINWPLG
# Assays:
# Assay in all cases: glycan array binding signal (z-score within array); higher = stronger binding
# Details in all cases: glycan notation: IUPAC condensed, linker removed
# [1] = target: Fuc(a1-2)[GalNAc(a1-3)]Gal(b1-3)GlcNAc(b1-6)GalNAc
# Method in brief: (§1)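 Columns mapping to the same glycan were averaged after glycan names were converted to IUPAC-condensed notation. The data come from 3228 arrays in the Consortium for Functional Glycomics database, limited to those with an available protein sequence. Binding is reported as a within-array Z-score averaged across arrays of one protein sequence and across linkers.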
# [2] = target: Fuc(a1-2)[GalNAc(a1-3)]Gal(b1-4)Glc
# Method in brief: as §1
# [3] = target: Fuc(a1-2)[GalNAc(a1-3)]Gal(b1-4)GlcNAc
# Method in brief: as §1
# [4] = target: Fuc(a1-2)[GalNAc(a1-3)]Gal(b1-4)GlcNAc(b1-2)Man
# Method in brief: as §1
# [5] = target: Fuc(a1-2)[GalNAc(a1-3)]Gal(b1-4)GlcNAc(b1-2)Man(a1-3)[Fuc(a1-2)[GalNAc(a1-3)]Gal(b1-4)GlcNAc(b1-2)Man(a1-6)]Man(b1-4)GlcNAc(b1-4)GlcNAc
# Method in brief: as §1
# [6] = target: Fuc(a1-2)[GalNAc(a1-3)]Gal(b1-4)GlcNAc(b1-2)Man(a1-3)[Fuc(a1-2)[GalNAc(a1-3)]Gal(b1-4)GlcNAc(b1-2)Man(a1-6)]Man(b1-4)GlcNAc(b1-4)[Fuc(a1-6)]GlcNAc
# Method in brief: as §1
# [7] = target: Fuc(a1-2)[GalNAc(a1-3)]Gal(b1-4)GlcNAc(b1-3)Gal(b1-4)GlcNAc
# Method in brief: as §1
# [8] = target: Fuc(a1-2)[GalNAc(a1-3)]Gal(b1-4)GlcNAc(b1-3)Gal(b1-4)GlcNAc(b1-3)Gal(b1-4)GlcNAc
# Method in brief: as §1
# [9] = target: Fuc(a1-2)[GalNAc(a1-3)]Gal(b1-4)GlcNAc(b1-3)GalNAc
# Method in brief: as §1
# [10] = target: Fuc(a1-2)[GalNAc(a1-3)]Gal(b1-4)GlcNAc(b1-3)[Fuc(a1-2)[GalNAc(a1-3)]Gal(b1-4)GlcNAc(b1-6)]GalNAc
# Method in brief: as §1
# [11] = target: Fuc(a1-2)[GalNAc(a1-3)]Gal(b1-4)GlcNAc(b1-6)GalNAc
# Method in brief: as §1
# [12] = target: Fuc(a1-2)[GalNAc(a1-3)]Gal(b1-4)[Fuc(a1-3)]GlcNAc
# Method in brief: as §1
# [13] = target: Fuc(a1-2)[GalNAc(a1-3)]Gal(b1-4)[Fuc(a1-3)]GlcNAc(b1-3)GalNAc
# Method in brief: as §1
# [14] = target: Fuc(a1-2)[GalNAc(a1-4)]Gal(b1-4)GlcNAc
# Method in brief: as §1
# [15] = target: Fuc(a1-2)[GalNAc(b1-3)]Gal
# Method in brief: as §1
# Fuc(a1-3)GlcNAc = target: Fuc(a1-3)GlcNAc
# Method in brief: as §1
# [16] = target: Fuc(a1-3)[Gal(b1-4)]Glc6S
# Method in brief: as §1
# [17] = target: Fuc(a1-3)[Gal(b1-4)]GlcNAc
# Method in brief: as §1
# [18] = target: Fuc(a1-3)[Gal(b1-4)]GlcNAc(b1-2)Man
# Method in brief: as §1
# [19] = target: Fuc(a1-3)[Gal(b1-4)]GlcNAc(b1-2)Man(a1-3)[Fuc(a1-3)[Gal(b1-4)]GlcNAc(b1-2)Man(a1-6)]Man(b1-4)GlcNAc(b1-4)GlcNAc
# Method in brief: as §1
# [20] = target: Fuc(a1-3)[Gal(b1-4)]GlcNAc(b1-2)Man(a1-3)[Fuc(a1-3)[Gal(b1-4)]GlcNAc(b1-2)Man(a1-6)]Man(b1-4)GlcNAc(b1-4)[Fuc(a1-6)]GlcNAc
# Method in brief: as §1
# [21] = target: Fuc(a1-3)[Gal(b1-4)]GlcNAc(b1-3)Gal(b1-3)[Fuc(a1-4)]GlcNAc
# Method in brief: as §1
# [22] = target: Fuc(a1-3)[Gal(b1-4)]GlcNAc(b1-3)Gal(b1-4)[Fuc(a1-3)]GlcNAc
# Method in brief: as §1
# [23] = target: Fuc(a1-3)[Gal(b1-4)]GlcNAc(b1-3)Gal(b1-4)[Fuc(a1-3)]GlcNAc(b1-3)Gal(b1-4)[Fuc(a1-3)]GlcNAc
# Method in brief: as §1
# [24] = target: Fuc(a1-3)[Gal(b1-4)]GlcNAc(b1-3)GalNAc
# Method in brief: as §1
# [25] = target: Fuc(a1-3)[Gal(b1-4)]GlcNAc(b1-6)GalNAc
# Method in brief: as §1
# [26] = target: Fuc(a1-3)[Gal(b1-4)]GlcNAc(b1-6)[Gal(b1-3)GlcNAc(b1-3)]Gal(b1-4)Glc
# Method in brief: as §1
# [27] = target: Fuc(a1-3)[Gal(b1-4)]GlcNAc6S
# Method in brief: as §1
# [28] = target: Fuc(a1-3)[Gal3S(b1-4)]Glc
# Method in brief: as §1
# [29] = target: Fuc(a1-3)[Gal3S(b1-4)]GlcNAc
# Method in brief: as §1
# [30] = target: Fuc(a1-3)[Gal3S(b1-4)]GlcNAc6S
# Method in brief: as §1
# [31] = target: Fuc(a1-3)[GalNAc(b1-4)]GlcNAc
# Method in brief: as §1
# [32] = target: Fuc(a1-3)[GalNAc(b1-4)]GlcNAc6S
# Method in brief: as §1
# Fuc(a1-4)GlcNAc = target: Fuc(a1-4)GlcNAc
# Method in brief: as §1
# Fuc(b1-3)GlcNAc = target: Fuc(b1-3)GlcNAc
# Method in brief: as §1
# Gal(a1-2)Gal = target: Gal(a1-2)Gal
# Method in brief: as §1
# Gal(a1-3)Gal = target: Gal(a1-3)Gal
# Method in brief: as §1
# Gal(a1-3)Gal(b1-3)GlcNAc = target: Gal(a1-3)Gal(b1-3)GlcNAc
# Method in brief: as §1
# [33] = target: Gal(a1-3)Gal(b1-3)GlcNAc(b1-2)Man
# Method in brief: as §1
# [34] = target: Gal(a1-3)Gal(b1-3)GlcNAc(b1-2)Man(a1-3)[Gal(a1-3)Gal(b1-3)GlcNAc(b1-2)Man(a1-6)]Man(b1-4)GlcNAc(b1-4)GlcNAc
# Method in brief: as §1
# [35] = target: Gal(a1-3)Gal(b1-3)GlcNAc(b1-3)GalNAc
# Method in brief: as §1
# [36] = target: Gal(a1-3)Gal(b1-3)GlcNAc(b1-6)GalNAc
# Method in brief: as §1
# [37] = target: Gal(a1-3)Gal(b1-3)[Fuc(a1-4)]GlcNAc(b1-2)Man(a1-3)[Gal(a1-3)Gal(b1-3)[Fuc(a1-4)]GlcNAc(b1-2)Man(a1-6)]Man(b1-4)GlcNAc(b1-4)GlcNAc
# Method in brief: as §1
# Gal(a1-3)Gal(b1-4)Glc = target: Gal(a1-3)Gal(b1-4)Glc
# Method in brief: as §1
# Gal(a1-3)Gal(b1-4)GlcNAc = target: Gal(a1-3)Gal(b1-4)GlcNAc
# Method in brief: as §1
binder,measurement,setting,value
B1,glycan array binding signal (z-score),[1],-0.506
same,glycan array binding signal (z-score),[2],-0.412
same,glycan array binding signal (z-score),[3],-0.431
same,glycan array binding signal (z-score),[4],-0.475
same,glycan array binding signal (z-score),[5],-0.312
same,glycan array binding signal (z-score),[6],0.04
same,glycan array binding signal (z-score),[7],-0.218
same,glycan array binding signal (z-score),[8],-0.381
same,glycan array binding signal (z-score),[9],-0.487
same,glycan array binding signal (z-score),[10],-0.073
same,glycan array binding signal (z-score),[11],-0.472
same,glycan array binding signal (z-score),[12],0.409
same,glycan array binding signal (z-score),[13],-0.44
same,glycan array binding signal (z-score),[14],1.57
same,glycan array binding signal (z-score),[15],-0.347
same,glycan array binding signal (z-score),Fuc(a1-3)GlcNAc,2.73
same,glycan array binding signal (z-score),[16],-0.113
same,glycan array binding signal (z-score),[17],0.928
same,glycan array binding signal (z-score),[18],-0.179
same,glycan array binding signal (z-score),[19],1.6
same,glycan array binding signal (z-score),[20],-0.113
same,glycan array binding signal (z-score),[21],0.446
same,glycan array binding signal (z-score),[22],2.19
same,glycan array binding signal (z-score),[23],3.54
same,glycan array binding signal (z-score),[24],0.383
same,glycan array binding signal (z-score),[25],-0.367
same,glycan array binding signal (z-score),[26],0.225
same,glycan array binding signal (z-score),[27],-0.27
same,glycan array binding signal (z-score),[28],0.709
same,glycan array binding signal (z-score),[29],0.667
same,glycan array binding signal (z-score),[30],0.336
same,glycan array binding signal (z-score),[31],1.34
same,glycan array binding signal (z-score),[32],0.753
same,glycan array binding signal (z-score),Fuc(a1-4)GlcNAc,2.33
same,glycan array binding signal (z-score),Fuc(b1-3)GlcNAc,0.341
same,glycan array binding signal (z-score),Gal(a1-2)Gal,-0.497
same,glycan array binding signal (z-score),Gal(a1-3)Gal,-0.489
same,glycan array binding signal (z-score),Gal(a1-3)Gal(b1-3)GlcNAc,-0.486
same,glycan array binding signal (z-score),[33],-0.498
same,glycan array binding signal (z-score),[34],0.509
same,glycan array binding signal (z-score),[35],-0.498
same,glycan array binding signal (z-score),[36],-0.493
same,glycan array binding signal (z-score),[37],1.57
same,glycan array binding signal (z-score),Gal(a1-3)Gal(b1-4)Glc,-0.483
same,glycan array binding signal (z-score),Gal(a1-3)Gal(b1-4)GlcNAc,-0.507
